# Results reported in the supplement of paper PMC11417369.
# The other results are listed elsewhere or left out.
# System: PfSIP2 AP2 domain 1 (GST-tagged)
# Assay: gcPBM binding intensity (ln(normalized median fluorescence intensity)); higher = stronger DNA binding
# Procedure, shortened: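 Binding intensity is defined as the maximum Masliner-normalised natural-log median intensity across replicate spots for either probe orientation. It was measured on an Agilent 4 × 180k array of primer-extended double-stranded 36-bp intergenic genomic probes and negative controls, to which GST-tagged P. falciparum DNA-binding domains made in E. coli were applied for 1 h in 1× PBS with 1% milk, 0.2 mg/ml BSA, 0.5% salmon testes DNA and 0.03% Triton X-100. Detection was by Alexa488 anti-GST antibody and scanning at 488 nm.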
row,Sequence,gcPBM binding intensity (ln)
1,AAGGATAATATATTAGAACACACATATATATGTAAA [CACACA_site7942],6.98
2,TACATACACAAATACACACACAAATACATACACAAA [CACACA_site704],7.18
3,TAAACAAATAAATATTGTACATTTTTTCCTTTTAAT [XGTACX_site5594],6.67
4,AAAAAATAAAACATATATAATATATAATATATATAT [GTGCAC_negctrl_site447],8.32
5,AATGTGAAAACGTGTACACATTTTATTTAATTTATC [CACACA_site5966],6.83
6,ATAAATTATATTATTGAACACACGTTTGGTAATGTT [CACACA_site2662],6.9
7,AAAAAAATAATAAAAAGTACAAAATGTAGAAAATGT [XGTACX_site5018],7.45
8,TTTATTAATTTATAGTGTACATATTAATAATATATT [XGTACX_site7949],7.11
9,ATATATATTATATATTGTACATATTATATTCATTAT [XGTACX_site1766],7.3
10,CCTAGAAAAAAGAACTGTACATATATATATAAATAT [XGTACX_site1680],6.87
11,ATAAATAAAAATAGAACACACATATGTTTTTTTTTT [CACACA_site3556],6.91
12,TTAATTGAAACTTATTGTACTTTTTTTTTTTTTTTT [XGTACX_site8162],7.6
13,ATATGCAGAGACTGTTTGCACTTTTTTATTTTATGT [GTGCAC_site9695],8.52
14,TGAAAAAATATAATTTGTACATATCAGGCAAAAATG [XGTACX_site1824],7.02
15,AGGACAAGGGTTACATGTACATATATATATATATAT [XGTACX_site901],9.4
16,AAGTTATTTATATATACACACAAATATAAATAATAT [CACACA_site1228],7.07
17,CTCAAATTTATTAGTGGTACATAACCAAGGAAATAA [XGTACX_site225],6.97
18,ATTATAATTACTCTAGTGCATTATAAATATGAATAA,7.69
19,TTTATGTAGGAACTAACACACATTGTAAGATTCAGA [CACACA_site1998],6.74
20,GGAACTTTTGGAGGTGCATGCGGAGCAATCTTTTCA [TGCATGCA_site454],10.6
21,TTATTAATTTATAAATGTACGAATTTTTTATTTAAC [XGTACX_site7605],7.04
22,CATATCAATAATATCACACATATATGTGATTTTATT [CACACA_site5053],6.93

row,Sequence,gcPBM binding intensity (ln)
1,CCCCTTAATTAAAGGAGTACTATTTGTGAATAATAT [XGTACX_site4715],7.47
2,TATTAATAATTAAGTTGTACATTAATTAATATACTG [XGTACX_site6994],6.82
3,TTTAATATTAATAATTGTACATTTTCATAAATACGC [XGTACX_site2837],7.11
4,TTTAAACCTTAATATTGTACGCAAAAAAAAAAAGAA [XGTACX_site3757],7.15
5,AAAATATAAATTCATGTGCACATATATATTTTGTTA [GTGCAC_site9782],8.24
6,AGGAAAAAATCGAGTAGTACACATTTAGAAATATAA [XGTACX_site8019],7.06
7,ATATCACATATATATATATATATATATATATATATA [XGTACX_negctrl_site463],9.31
8,AACAAGGCCCGGTACTGTACATTTTTTCATAACATT [XGTACX_site6134],7.01
9,TATATACATATATACACACACATATATTATATATAT [CACACA_site275],7.62
10,GTATGTATATTTATCTGTACATATTTATGTATTCTT [XGTACX_site2112],6.9
11,TATAAATATAAAAGGAGTACAAATATATATATATAT [XGTACX_site1386],9.22
12,AGTTATAATAAAAAATGTACGTATTATCATTAAGAA [XGTACX_site4244],7.14
13,TTTTTTTTTATAGCTAAACACACATAAGAATATATG [CACACA_site8282],6.87
14,TCCTAATATATGTATGCACACACAATATATACATAT [CACACA_site9111],7.36
15,GAAAATAAAAAATATGAACACACATATATAACAAAA [CACACA_site7975],6.89
16,AAAAAAATTAAACATACACACGTTACTATTTTTATA [CACACA_site5009],6.89
17,AAAATTGATATATGCACACATATATATATTAAATAT [CACACA_site763],7.26
18,TTTCATTCTGGTATCACACATTTATTTTCTAGTTTA [CACACA_site4286],7.06
19,AAAAAAAAAAAAAACACACATACACATATATTTTTA [CACACA_site3893],7.25
20,TTGCATCTACATTTATGTACATATCTTATGATAAAT [XGTACX_site2146],7.03
21,ACAATAATTTCCATCACACATATATTTATATATTAC [CACACA_site6003],7.19
22,ATACATATTCTTATTTGTACTTATTATAAAATGGTC [XGTACX_site6584],7.22

row,Sequence,gcPBM binding intensity (ln)
1,TAACTGATATATAAAACACACATCATAAAAATATAA [CACACA_site6499],6.87
2,TTGAACCTGATAAATACACACAATATAGATTTTTTT [CACACA_site7091],6.88
3,TCAAAATGTTACAAATTATGTTGGCTAAAATTTTAA [TGCATGCA_negctrl_site188],6.83
4,AATTATACTCACGTTACACACACACTATATATATAT [CACACA_site9375],9.19
5,TATAATATAATATTTTGTACATATGATAAAAAAAAA [XGTACX_site6858],7.09
6,ACACATATAAATAAAACATGCATATGTAAATATATA [TGCATGCA_site403],6.95
7,AGATATATTTTTTAAATTTAAAAATTATAAAATTTA [CACACA_negctrl_site533],6.8
8,AAATATATCTTCTTTGCACACTTAAAGGGAAGTGAT [CACACA_site343],7.08
9,GCATATAAAATAAATCGTACATGTAAAACATAATTA [XGTACX_site7077],7.15
10,GATAGAAAAAAATAATGTACACACACATATATGTTT [XGTACX_site392],6.87
11,GGCAGCAATTTAGTTACACACATATATAGGTATACA [CACACA_site76],7.23
12,TTTCTTTTTTCTGTTATTATTATAAAACGATATTTA [TGCATGCA_negctrl_site167],6.99
13,TACACATACCCATACACACGCATAGAAACATACGAA [CACACA_site5212],7.29
14,TATTTTTATTTTAATTGTACTTTTTAATTAATAATA [XGTACX_site8302],7.27
15,TTTTTTTTTTTTATATGTACTAATAATCTTTTTTTT [XGTACX_site3552],6.96
16,AATATTTTATATGTAGTGCATTACTATAGGATTTAT [GTGCAC_site9424],9.45
17,GCTGAAAGGATAAAGGTGCATATTTTTTAAAAAATT [GTGCAC_site9487],11.2
18,TGTGTCAAATAATTAATGTCATATATATTTTGTATA [CACACA_negctrl_site1479],6.95
19,TGCTTATATCTTATAATATTTATACATCATAATAAG [CACACA_negctrl_site629],7.03
20,ACAAAATAAACGGCTGCACACAAGAAGCACAATATT [CACACA_site3690],7.26
21,AATATATGGTTTCATGATATTAAATACAATTTAATG [CACACA_negctrl_site1503],6.75
22,ATATATATATGTATATGTACTTATATTATTGTTTGT [XGTACX_site1466],8.83

row,Sequence,gcPBM binding intensity (ln)
1,CTATAATTATGATGAAGTACATATGAGTTCAAAAAA [XGTACX_site3070],6.99
2,ACATAATGCTAGACACGTACGTACATCCGTGAGGTT [XGTACX_site4156],7.22
3,TTATTATTATATTCTACATGCAGTTTGTGTAGAACA [TGCATGCA_site455],6.87
4,GTAAAAGAACGGCATGCATGAAAAATATTACACATG [TGCATGCA_site143],6.88
5,TTTCAATAATAAAAAACACACACAAAAAAAAATAAT [CACACA_site8905],7
6,AAAAATATAAACACCAGTACACAAACCTATAATGGA [XGTACX_site3846],6.93
7,AAAGTAAATTTAAGCACACACAACGAATTTTTATAC [CACACA_site1959],7.22
8,AAAATTTATAAAAGCACACAAAATAAAAAAAAATGA [CACACA_site1491],7.06
9,TTATAATATGTATACACACACATATATAAATATATA [CACACA_site2326],7.02
10,TTTTGTTATATACAATAGATCAGAAGAAATGAAGTT [CACACA_negctrl_site1579],7.14
11,CAATGTTAACATATTACACACATATGTATATAGAAT [CACACA_site2732],6.95
12,CTTACGTATTAAGTGTGTCCGTAGTGTTCATAGTTC [XGTACX_site8913],6.98
13,TATATATGTATATATTTTATAAGTATGCAAGAAAAT [TGCATGCA_negctrl_site486],7.94
14,ATATTGGAATAAATTTGTACATATATATATTATTCA [XGTACX_site916],7.02
15,AAAAAAAAAGAAAAATGTACATACATAAATATATAT [XGTACX_site5664],6.94
16,ATTATAAACCATAATTAACACACAAAATAAGTTACA [CACACA_site9057],6.93
17,AAAAAAAAAAAAAAAAGTACACAAATAGATTTATAT [XGTACX_site3727],7.65
18,ATTCTATTTTTTATAAAACCATGTCATCAACATAGG [CACACA_negctrl_site237],7
19,CATCCATATAAAATATGTACATATATATATATATAT [XGTACX_site5859],9.25
20,TCCTTTCAACCATATATAATGACATGTACTCAAAAA [GTGCAC_negctrl_site417],7.39
21,TATTTTAGTAAAGGTGGTACTTTTAAGTTCATGTAT [XGTACX_site1854],7.21
22,TATATATCAAGACACACACACATATATTTATTTATA [CACACA_site7733],7.11
